# Results from the supplement of paper PMC8728848.
# Some of the results follow.
# B1: GS13455A-bfa-343-25-343 (Bacteroides fragilis) (protein)
# chain: KDEIQIVDQDTSWQMDNKYIEEDIREQLGIDPFTDLVYLGYYGNPYTQLEAINDLVNTTLVGKNELSFKVKVTKPYKEDIKVNLMKEDKLVTDFPEMAEGIPLFPSENCTFEGGVLKAGELETTVKLTLKDVEKLNNLSGYVMAIKLTMEGSHEHLAIARTRSSYFVKLNLSIRLDNIDSSNKKIEGKGFNKEISFKSDIRPDKLGSLNDGNFTANNWYTSNANNYLTIILPEKQSLKGFRLDTNTSPSGSYMLKSCRVMVETPDGNWVNHGVFDRKSMDGIAYISFKKPVECTKVRFENMMAFNGRFSVDVNEVTAFR
# Experiments:
# Assay in all cases: glycan array binding signal (z-score within array); higher = stronger binding
# Settings in all cases: glycan notation: IUPAC condensed, linker removed
# [1] = target: GalNAc(b1-4)GlcNAc(b1-2)Man
# In short: (§1)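 The Consortium for Functional Glycomics database supplied 3228 glycan arrays, of which those lacking an available protein sequence were dropped. The binding signal, a within-array Z-score, was averaged across arrays of the same protein sequence and across linkers. Negative scores can be read as non-binding.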
# [2] = target: GalNAc(b1-4)GlcNAc(b1-2)Man(a1-3)[GalNAc(b1-4)GlcNAc(b1-2)Man(a1-6)]Man(b1-4)GlcNAc(b1-4)GlcNAc
# In short: as §1
# [3] = target: GalNAc(b1-4)GlcNAc(b1-3)GalNAc(b1-4)GlcNAc
# In short: as §1
# [4] = target: GalNAc(b1-4)GlcNAc6S
# In short: as §1
# [5] = target: GalNAc(b1-6)GalNAc
# In short: as §1
# [6] = target: GalNAc3S(b1-4)GlcNAc
# In short: as §1
# [7] = target: GalNAc3S(b1-4)GlcNAc3S
# In short: as §1
# [8] = target: GalNAc3S(b1-4)[Fuc(a1-3)]GlcNAc
# In short: as §1
# [9] = target: GalNAc4S6S(b1-4)GlcNAc
# In short: as §1
# [10] = target: GalNAc6S(b1-4)GlcNAc
# In short: as §1
# [11] = target: Glc(a1-4)Glc
# In short: as §1
# [12] = target: Glc(a1-4)Glc(a1-4)Glc(a1-4)Glc
# In short: as §1
# [13] = target: Glc(a1-6)Glc(a1-6)Glc
# In short: as §1
# [14] = target: Glc(a1-6)Glc(a1-6)Glc(a1-6)Glc
# In short: as §1
# [15] = target: Glc(b1-4)Glc
# In short: as §1
# [16] = target: Glc(b1-6)Glc
# In short: as §1
# [17] = target: GlcA(b1-3)Gal
# In short: as §1
# [18] = target: GlcA(b1-3)GlcNAc
# In short: as §1
# [19] = target: GlcA(b1-6)Gal
# In short: as §1
# [20] = target: GlcA3S(b1-3)Gal(b1-4)GlcNAc(b1-2)Man
# In short: as §1
# [21] = target: GlcA3S(b1-3)Gal(b1-4)GlcNAc(b1-3)Gal(b1-4)Glc
# In short: as §1
# [22] = target: GlcNAc(a1-3)Gal(b1-4)GlcNAc
# In short: as §1
# [23] = target: GlcNAc(a1-4)Gal(b1-3)GlcNAc
# In short: as §1
# [24] = target: GlcNAc(a1-4)Gal(b1-4)GalNAc
# In short: as §1
# [25] = target: GlcNAc(a1-4)Gal(b1-4)GlcNAc
# In short: as §1
# [26] = target: GlcNAc(a1-4)Gal(b1-4)GlcNAc(b1-3)Gal(b1-4)Glc
# In short: as §1
# [27] = target: GlcNAc(a1-4)Gal(b1-4)GlcNAc(b1-3)Gal(b1-4)GlcNAc
# In short: as §1
# [28] = target: GlcNAc(a1-4)Gal(b1-4)GlcNAc(b1-3)Gal(b1-4)GlcNAc(b1-3)Gal(b1-4)GlcNAc
# In short: as §1
# [29] = target: GlcNAc(a1-4)Gal(b1-4)GlcNAc(b1-3)Gal(b1-4)[Fuc(a1-3)]GlcNAc(b1-3)Gal(b1-4)[Fuc(a1-3)]GlcNAc
# In short: as §1
# [30] = target: GlcNAc(a1-6)Gal(b1-4)GlcNAc
# In short: as §1
# [31] = target: GlcNAc(b1-2)Gal(b1-3)GalNAc
# In short: as §1
# [32] = target: GlcNAc(b1-2)Man(a1-3)[GlcNAc(b1-2)Man(a1-6)]Man(b1-4)GlcNAc(b1-4)GlcNAc
# In short: as §1
# [33] = target: GlcNAc(b1-2)Man(a1-3)[GlcNAc(b1-2)Man(a1-6)]Man(b1-4)GlcNAc(b1-4)[Fuc(a1-6)]GlcNAc
# In short: as §1
# [34] = target: GlcNAc(b1-2)Man(a1-3)[GlcNAc(b1-4)][GlcNAc(b1-2)Man(a1-6)]Man(b1-4)GlcNAc(b1-4)GlcNAc
# In short: as §1
# [35] = target: GlcNAc(b1-2)Man(a1-3)[GlcNAc(b1-4)][GlcNAc(b1-2)Man(a1-6)]Man(b1-4)GlcNAc(b1-4)[Fuc(a1-6)]GlcNAc
# In short: as §1
# [36] = target: GlcNAc(b1-2)[GlcNAc(b1-4)]Man(a1-3)[GlcNAc(b1-2)Man(a1-6)]Man(b1-4)GlcNAc(b1-4)GlcNAc
# In short: as §1
# [37] = target: GlcNAc(b1-2)[GlcNAc(b1-4)]Man(a1-3)[GlcNAc(b1-4)][GlcNAc(b1-2)Man(a1-6)]Man(b1-4)GlcNAc(b1-4)GlcNAc
# In short: as §1
# [38] = target: GlcNAc(b1-2)[GlcNAc(b1-4)]Man(a1-3)[GlcNAc(b1-4)][GlcNAc(b1-2)[GlcNAc(b1-6)]Man(a1-6)]Man(b1-4)GlcNAc(b1-4)GlcNAc
# In short: as §1
# [39] = target: GlcNAc(b1-2)[GlcNAc(b1-4)]Man(a1-3)[GlcNAc(b1-4)][GlcNAc(b1-2)[GlcNAc(b1-6)]Man(a1-6)]Man(b1-4)GlcNAc(b1-4)[Fuc(a1-6)]GlcNAc
# In short: as §1
# [40] = target: GlcNAc(b1-2)[GlcNAc(b1-6)]Man(a1-6)[GlcNAc(b1-2)Man(a1-3)]Man(b1-4)GlcNAc(b1-4)GlcNAc
# In short: as §1
# [41] = target: GlcNAc(b1-2)[GlcNAc(b1-6)]Man(a1-6)[GlcNAc(b1-2)Man(a1-3)]Man(b1-4)GlcNAc(b1-4)[Fuc(a1-6)]GlcNAc
# In short: as §1
# [42] = target: GlcNAc(b1-2)[GlcNAc(b1-6)]Man(a1-6)[GlcNAc(b1-4)][GlcNAc(b1-2)Man(a1-3)]Man(b1-4)GlcNAc(b1-4)GlcNAc
# In short: as §1
# [43] = target: GlcNAc(b1-3)Fuc
# In short: as §1
# [44] = target: GlcNAc(b1-3)Gal
# In short: as §1
# [45] = target: GlcNAc(b1-3)Gal(b1-3)GalNAc
# In short: as §1
binder,measurement,setting,value
B1,glycan array binding signal (z-score),[1],-0.619
same,glycan array binding signal (z-score),[2],1.75
same,glycan array binding signal (z-score),[3],1.21
same,glycan array binding signal (z-score),[4],-0.178
same,glycan array binding signal (z-score),[5],0.191
same,glycan array binding signal (z-score),[6],-0.39
same,glycan array binding signal (z-score),[7],-0.507
same,glycan array binding signal (z-score),[8],-0.412
same,glycan array binding signal (z-score),[9],-0.138
same,glycan array binding signal (z-score),[10],-0.162
same,glycan array binding signal (z-score),[11],-0.288
same,glycan array binding signal (z-score),[12],0.002
same,glycan array binding signal (z-score),[13],-0.516
same,glycan array binding signal (z-score),[14],-0.604
same,glycan array binding signal (z-score),[15],-0.247
same,glycan array binding signal (z-score),[16],-0.811
same,glycan array binding signal (z-score),[17],-0.323
same,glycan array binding signal (z-score),[18],0.404
same,glycan array binding signal (z-score),[19],0.968
same,glycan array binding signal (z-score),[20],-0.005
same,glycan array binding signal (z-score),[21],-0.631
same,glycan array binding signal (z-score),[22],-0.633
same,glycan array binding signal (z-score),[23],-0.198
same,glycan array binding signal (z-score),[24],-0.142
same,glycan array binding signal (z-score),[25],-1.13
same,glycan array binding signal (z-score),[26],0.059
same,glycan array binding signal (z-score),[27],-0.573
same,glycan array binding signal (z-score),[28],-0.41
same,glycan array binding signal (z-score),[29],1.64
same,glycan array binding signal (z-score),[30],-0.399
same,glycan array binding signal (z-score),[31],-0.219
same,glycan array binding signal (z-score),[32],0.077
same,glycan array binding signal (z-score),[33],-0.409
same,glycan array binding signal (z-score),[34],0.295
same,glycan array binding signal (z-score),[35],-0.366
same,glycan array binding signal (z-score),[36],-0.39
same,glycan array binding signal (z-score),[37],-0.496
same,glycan array binding signal (z-score),[38],-0.233
same,glycan array binding signal (z-score),[39],0.855
same,glycan array binding signal (z-score),[40],-0.513
same,glycan array binding signal (z-score),[41],0.286
same,glycan array binding signal (z-score),[42],-0.262
same,glycan array binding signal (z-score),[43],-0.449
same,glycan array binding signal (z-score),[44],0.339
same,glycan array binding signal (z-score),[45],-0.381
